Test results as given in PMC4336329 (PLoS ONE, 2015).
Screen size: about 310,000 compounds; about 2,200 (0.71%) showed an effect of 50% or more. The effect is printed as a negative number. The list shows a part of the results.

Each compound was assayed against human ether-à-go-go-related gene (hERG) potassium channel (human, UniProt Q12809) (assay: primary screen, population patch clamp on CHO cells stably expressing hERG).
human ether-à-go-go-related gene (hERG) potassium channel, sequence (Q12809 whole entry, looked up): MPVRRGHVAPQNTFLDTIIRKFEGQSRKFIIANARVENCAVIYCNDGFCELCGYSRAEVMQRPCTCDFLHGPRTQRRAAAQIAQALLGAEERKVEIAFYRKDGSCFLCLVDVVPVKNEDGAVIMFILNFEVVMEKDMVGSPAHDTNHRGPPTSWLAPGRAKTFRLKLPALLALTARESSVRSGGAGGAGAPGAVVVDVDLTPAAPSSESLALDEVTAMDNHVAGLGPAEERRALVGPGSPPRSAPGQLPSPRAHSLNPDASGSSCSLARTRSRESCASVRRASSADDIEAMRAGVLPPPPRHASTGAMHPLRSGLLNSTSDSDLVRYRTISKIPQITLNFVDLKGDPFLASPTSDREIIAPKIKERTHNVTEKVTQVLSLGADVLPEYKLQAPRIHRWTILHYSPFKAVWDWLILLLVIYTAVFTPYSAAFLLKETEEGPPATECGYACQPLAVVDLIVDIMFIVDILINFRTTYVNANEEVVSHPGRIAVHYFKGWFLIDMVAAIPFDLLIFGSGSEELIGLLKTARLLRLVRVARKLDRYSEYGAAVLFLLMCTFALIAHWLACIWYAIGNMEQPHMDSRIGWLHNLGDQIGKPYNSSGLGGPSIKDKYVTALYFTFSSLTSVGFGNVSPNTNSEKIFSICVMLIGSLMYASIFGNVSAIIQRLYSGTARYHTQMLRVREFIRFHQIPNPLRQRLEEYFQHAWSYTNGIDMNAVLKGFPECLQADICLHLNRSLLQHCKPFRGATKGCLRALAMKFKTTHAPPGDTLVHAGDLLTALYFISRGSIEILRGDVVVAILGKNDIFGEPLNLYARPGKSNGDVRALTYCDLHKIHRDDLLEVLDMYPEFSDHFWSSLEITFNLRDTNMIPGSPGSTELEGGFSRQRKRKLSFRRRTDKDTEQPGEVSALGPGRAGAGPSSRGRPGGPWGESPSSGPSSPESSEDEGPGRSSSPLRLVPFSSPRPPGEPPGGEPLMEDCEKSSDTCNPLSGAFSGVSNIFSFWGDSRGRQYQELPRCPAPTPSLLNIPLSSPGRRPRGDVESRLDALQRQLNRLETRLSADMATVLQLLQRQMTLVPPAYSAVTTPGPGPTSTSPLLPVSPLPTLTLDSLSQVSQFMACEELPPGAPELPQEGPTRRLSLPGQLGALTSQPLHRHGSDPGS

Row | SMILES | hERG current change (%, negative = inhibition) at 1uM
1 | Cc1ccc(C)c(NC(=O)c2nc(Cl)ccc2Cl)c1 | 13.1%
2 | O=C(NC1CCCCC1NC(=O)c1ccco1)c1ccco1 (centres unmarked) | 18.2%
3 | CCn1c(Cn2nnc(-c3ccccc3)n2)nnc1SCC(=O)Nc1cccc(C)c1C | 9.9%
4 | CC(=O)c1ccc(N2CCN(CC(=O)NC(=O)NCc3ccccc3)CC2)cc1 | 11.6%
5 | CN1CCN(C(=S)NC(=O)c2ccccc2Br)CC1 | 12.5%
6 | COc1cccc(/C=N/Nc2nc3ccccc3[nH]2)c1OC | 17.2%
7 | CC(=O)c1cccc(S(=O)(=O)N2CCCC(c3nc(-c4ccc(C)o4)no3)C2)c1 (centres unmarked) | -0.0341%
8 | CC(NC(=O)CCc1nnc(Cc2cccc(C(F)(F)F)c2)o1)C1CC1 (centres unmarked) | 6.54%
9 | Cc1csc(=O)n1CC(=O)OCC(=O)NCc1ccc(F)cc1 | 10.9%
10 | O=C(NCc1ccc(F)cc1)C1CCCN(S(=O)(=O)c2cccnc2)C1 (centres unmarked) | 5.42%
11 | CCCC(C)C(=O)NCc1ccc2c(c1)OCO2 (centres unmarked) | 14.5%
12 | C=CCn1c(O)c(C(C)=NCCc2c[nH]c3ccccc23)c(=O)[nH]c1=O | 7.13%
13 | CCC(=O)Nc1cc2nn(-c3ccccc3)nc2cc1Cl | 7.31%
14 | O=C(C[n+]1cc(Br)cc(Br)c1)c1cccc([N+](=O)[O-])c1.[Cl-] | 4.85%
15 | COc1ccc(-c2csc3ncnc(N4CCN(S(=O)(=O)c5ccccc5C#N)CC4)c23)cc1 | 8.67%
16 | CCN(CC)CCC(=O)N1c2ccccc2Sc2ccc(NC(=O)OC)cc21 | -3.81%
17 | O=C(CCN1C(=O)C2C3C=CC(C3)C2C1=O)N1CCN(c2ccccc2Cl)CC1 (centres unmarked) | -7.36%
18 | Cc1oc2c(cc(NS(=O)(=O)c3ccc(Cl)cc3)c3ccccc32)c1C(=O)O | 7.56%
19 | Cc1oc(-c2ccccc2Cl)nc1CS(=O)CC(=O)NC1CC1 (centres unmarked) | 15.4%
20 | Cc1ccc(C2=N/C(=C\c3cccs3)C(=O)N2Nc2ccccc2)cc1 | 11.8%
21 | c1ccc(-c2onc3c2CCCC3)cc1 | 7.05%
22 | COc1ccc(/C=N/S(=O)(=O)c2cccs2)cc1 | 6.11%
23 | COC(=O)Cn1c(=NC(=O)c2cccc(OC)c2)sc2cc(OC)ccc21 | 2.26%

Row | SMILES | hERG current change (%, negative = inhibition) at 1uM
24 | COC(=O)CNC(=O)C1Nc2ccc(OC(F)(F)F)cc2C2C=CCC12 (centres unmarked) | 5.55%
25 | CN(C)C1=NC[C@H](Cc2ccccc2)N1CCCC1CCCC1 | -56.8%
26 | COc1ccc(C(C)C)cc1S(=O)(=O)Nc1ccccn1 | 0.543%
27 | O=C(O)c1ccc(Cl)c(S(=O)(=O)N(Cc2ccccc2)c2ccccc2Cl)c1 | 14.9%
28 | CCn1c(=O)cc(SCC(=O)NCc2ccco2)c2ccccc21 | 6.5%
29 | COc1cccc(C2CC(c3ccccc3Cl)n3nnnc3N2)c1 (centres unmarked) | 5.05%
30 | O=C(Nc1ccc(S(=O)(=O)N2CCCCC2)cc1)c1ccc(=O)[nH]c1 | 12.7%
31 | CC(C)(C)[C@@H]1C=C(C(=O)O)O[C@H](OCCCCO)C1 | 14.1%
32 | O=C(O)c1cc2cc(OCc3ccccc3)ccc2[nH]1 | 16.3%
33 | COCCNC(=S)N1CCN(c2nc3ccccc3s2)CC1 | 3.61%
34 | O=C(O)/C=C/c1ccc(S(=O)(=O)NCc2ccco2)cc1 | 7.02%
35 | Cc1ccc(C(C)C)c(OCCNCc2ccccc2)c1.O=C(O)C(=O)O | 22.1%
36 | O=C(CCc1nnc2ccc(NCc3ccco3)nn12)Nc1ccccn1 | 12.1%
37 | C=CCNC(=O)/C=C/c1ccc(C(C)C)cc1 | 4.66%
38 | CCOC(=O)[C@@H]1[C@H]2COc3ccc(Br)cc3[C@@H]2N2C(=O)N(c3cccc(F)c3)C(=O)[C@@]12C | 10.9%
39 | CN(c1ccccc1C(=O)N1CCN(c2ccccc2F)CC1)S(=O)(=O)c1ccccc1 | -3.29%
40 | NC(=O)C1CCN(C(=O)NC2CC(=O)N(c3ccc4c(c3)OCCO4)C2)CC1 (centres unmarked) | 6.84%
41 | CCOc1ccc(C2=NNC(c3cccnc3)=Nc3ccc(OC)cc32)cc1 | 10.1%
42 | Cc1c(NC(=O)Cn2ccc([N+](=O)[O-])n2)c(=O)n(-c2ccccc2)n1C | 20.2%
43 | S=c1[nH]nc(Cc2ccc(Br)cc2)n1/N=C/c1ccc(Cl)cc1 | 2.36%
44 | COc1cc2c(cc1OC)C(c1cc3ccc(C)cc3[nH]c1=O)N(C(=O)c1ccco1)CC2 (centres unmarked) | 4.19%
45 | CC12CC3CC(C)(C1)CC(C(=O)NC1=NCCS1)(C3)C2 | 4.09%
46 | COc1cc(C(C)=O)ccc1Oc1ncnc2c1cnn2-c1cccc(Cl)c1 | 7%

Row | SMILES | hERG current change (%, negative = inhibition) at 1uM
47 | Cc1ccc(S(=O)(=O)N2CC=C(C(=O)NCc3ccc(F)cc3)CC2)cc1 | 0.952%
48 | COC(=O)c1cccc(NC(=O)CC2C(=O)NCCN2C(=O)c2ccc(F)cc2F)c1 (centres unmarked) | 10.5%
49 | Cl.OCCN1CCN(CC(O)COc2ccc3ccccc3c2)CC1 (centres unmarked) | 4.26%
50 | CCOc1ccc(-c2nc(CCl)cs2)cc1.Cl | 12.9%
51 | NS(=O)(=O)c1ccc(NC(=O)CN2CCCc3ccccc32)cc1 | 10.3%
52 | CC(=O)O.NC(N)=N/N=C/c1c(Cl)cccc1Cl | 6.48%
53 | CCN(CC)C(=O)Cn1cc(C(=O)C(=O)NCc2ccco2)c2ccccc21 | 5.23%
54 | CCOc1ccccc1/C=N/N1CCN(Cc2ccccc2)CC1.Cl | 16.9%
55 | COC(CNC(=O)CSCc1nc(-c2ccc(SC)cc2)oc1C)OC | 5.17%
56 | FC(F)(F)Oc1ccc(NC(=S)Nc2ccccc2N2CCOCC2)cc1 | 8.69%
57 | [O-]/C(=C(\C(=S)Nc1ccccc1F)[n+]1ccccc1)c1ccc(-c2ccccc2)cc1 | 5.99%
58 | Cc1ccc(/C=N/n2c(C)n[nH]c2=S)o1 | 7.01%
59 | COc1ccc(C(=O)NCCC2=CCCCC2)cc1S(=O)(=O)N1CCOCC1 | -9.75%
60 | COc1ccc(NC(=O)CSc2n[nH]c(=O)n2Cc2ccccc2)cc1Cl | 6.47%
61 | O=C(c1ccc(C(=O)N2CCOCC2)s1)N1CCOCC1 | 13.5%
62 | CCOC(=O)c1ccc(NC(=O)C(CC)CC)cc1 | 2.04%
63 | O=C(COc1ccccc1)Nc1c(Cl)ccc2nsnc12 | 15.5%
64 | CCOc1cc(N2CCOCC2)c(OCC)cc1NC(=O)CN1C(=O)N(C)C2(CCCCC2)C1=O | 3.37%
65 | COc1cc(SC)ccc1C(=O)OCC(=O)N1CCCC1 | 8.95%
66 | C/C(=N\NC(=O)CNC(=O)c1ccco1)c1ccc(Br)cc1 | 2.82%
67 | Cc1ccc(-n2ncc(-c3nn[nH]n3)c2N)cc1 | 17.8%
68 | O=C(Cc1cccc2ccccc12)Nc1ccc2oc(-c3ccccc3)nc2c1 | 10.1%
69 | O=S(=O)(NCc1ccccc1Cl)c1ccc(-n2cccn2)cc1 | 12.7%

Row | SMILES | hERG current change (%, negative = inhibition) at 1uM
70 | CCOC(=O)N1CCN(S(=O)(=O)N2CCCC(C(=O)NCc3ccc(OC)cc3)C2)CC1 (centres unmarked) | 14.4%
71 | OCC[C@H]1C[C@@H](O)[C@H](O)[C@@]2(OCc3ccccc32)O1 | 9.4%
72 | COc1ccc(NC(=O)[C@@H](NC(=O)c2ccccc2F)C(C)C)cc1S(=O)(=O)N1CCOCC1 | 2.17%
73 | Cc1cc(C)cc(NC(=O)Nc2cnccn2)c1 | 6.81%
74 | Cc1c(CCOC(=O)C23CC4(C)CC(C)(CC(C)(C4)C2)C3)sc[n+]1CC(=O)c1ccccc1.[Br-] | 5.87%
75 | CCc1cc(C(=O)N2CCCC(C(=O)c3cccc(OC(C)C)c3)C2)n(C)n1 (centres unmarked) | 9.14%
76 | Cc1ccc(CCSCC(=O)O)cn1 | 8.05%
77 | CCC1CCCCN1C(=O)CCc1nnc(C2CCCCC2)o1 (centres unmarked) | 6.08%
78 | O=C(Cc1ccc(S(=O)(=O)N2CCOCC2)s1)NCC1CCCCC1 | -1.83%
79 | Cc1nc2ccsc2c(=O)n1-c1ccccc1Cl | 11.4%
80 | CN(C)c1ccc(CNC(=O)CCNS(=O)(=O)c2cc(Br)cnc2N)cc1 | 14.5%
81 | O=C(O)C(F)(F)F.O=C1C(Cc2ccccc2)Nc2ncnc(N3CCOCC3)c2N1Cc1ccc(Cl)cc1 (centres unmarked) | 7.65%
82 | CCCOc1cccc(C(=O)N(Cc2ccco2)C2CCS(=O)(=O)C2)c1 (centres unmarked) | 3.56%
83 | CCOC(=O)N1CCN(C(=O)Cc2c(C(=O)O)n(C)c3ccccc23)CC1 | 11.5%
84 | CC(=O)c1cccc(NC(=O)Cn2cc3c(n2)CCCC3)c1 | 6.93%
85 | c1cncc(-c2nc(-c3ccco3)cs2)c1 | 5.44%
86 | O=S(=O)(Nc1cccc(S(=O)(=O)N2CCCC2)c1)c1cccc(Br)c1 | -3.6%
87 | CC(O)C(=O)N/N=C/c1cccc(Cl)c1Cl (centres unmarked) | 5.85%
88 | Cc1cc(=O)oc(C)c1C(=O)Nc1ccc(N(C)C)cc1 | 12.4%
89 | CCOc1cc(/C=N/NC(=O)c2ccncc2)ccc1OC(=O)c1ccccc1 | 11.3%
